According to article PMC4336329 (PLoS ONE, 2015):
The campaign covered roughly 310,000 compounds. About 14,000 (4.5%) showed an effect of 50% or more. The effect is printed as a negative number. The list shows a part of the results.

biological target: human ether-à-go-go-related gene (hERG) potassium channel (human, UniProt Q12809); test: primary screen, population patch clamp on CHO cells stably expressing hERG
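Further: peak tail current of the secondary pulse compared with the same well before compound.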

Sequence of human ether-à-go-go-related gene (hERG) potassium channel (Q12809 whole entry, looked up): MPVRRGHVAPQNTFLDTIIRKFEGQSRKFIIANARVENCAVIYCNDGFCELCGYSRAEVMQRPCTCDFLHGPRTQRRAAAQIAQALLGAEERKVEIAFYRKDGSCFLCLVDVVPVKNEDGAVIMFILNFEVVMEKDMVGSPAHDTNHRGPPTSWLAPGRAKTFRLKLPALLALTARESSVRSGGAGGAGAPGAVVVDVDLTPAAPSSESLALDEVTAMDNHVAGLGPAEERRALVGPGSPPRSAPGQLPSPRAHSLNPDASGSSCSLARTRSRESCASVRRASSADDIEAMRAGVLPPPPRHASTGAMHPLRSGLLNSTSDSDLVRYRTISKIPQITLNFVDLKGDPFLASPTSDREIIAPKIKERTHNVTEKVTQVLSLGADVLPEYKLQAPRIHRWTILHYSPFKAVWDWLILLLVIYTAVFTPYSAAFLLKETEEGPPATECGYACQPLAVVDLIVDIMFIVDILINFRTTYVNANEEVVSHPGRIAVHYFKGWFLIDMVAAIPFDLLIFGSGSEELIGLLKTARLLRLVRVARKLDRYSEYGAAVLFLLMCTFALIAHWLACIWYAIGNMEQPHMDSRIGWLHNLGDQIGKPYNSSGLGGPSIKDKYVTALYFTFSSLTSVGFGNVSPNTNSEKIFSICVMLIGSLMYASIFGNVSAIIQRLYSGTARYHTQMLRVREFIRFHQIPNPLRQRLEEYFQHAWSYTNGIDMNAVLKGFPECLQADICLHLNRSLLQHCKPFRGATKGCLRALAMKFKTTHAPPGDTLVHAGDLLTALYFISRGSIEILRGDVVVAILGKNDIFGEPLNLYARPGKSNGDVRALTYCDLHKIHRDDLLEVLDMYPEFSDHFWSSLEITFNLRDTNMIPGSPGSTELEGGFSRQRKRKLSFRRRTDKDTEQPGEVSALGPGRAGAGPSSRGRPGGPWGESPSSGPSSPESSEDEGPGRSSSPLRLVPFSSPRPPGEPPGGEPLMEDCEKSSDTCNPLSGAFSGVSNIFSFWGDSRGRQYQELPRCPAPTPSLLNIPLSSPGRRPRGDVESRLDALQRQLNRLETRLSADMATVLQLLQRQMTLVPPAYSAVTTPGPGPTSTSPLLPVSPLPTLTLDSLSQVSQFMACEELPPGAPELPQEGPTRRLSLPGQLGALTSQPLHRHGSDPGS

Compound	hERG current change (%, negative = inhibition) at 10uM
COc1ccc(Nc2nc(-c3ccccc3)nc3ccccc23)cc1.Cl	10.8%
CC(C)C(C(=O)N1CCOCC1)N1C(=O)c2ccccc2C1=O (stereo not shown)	3.41%
Nc1cc(C(=O)O)c(N)c2c1C(=O)c1ccccc1C2=O	7.98%
Cc1cc(=O)oc2cc(OCC(=O)N3CCC(C(N)=O)CC3)ccc12	4.72%
COCCNC(=S)Nc1ccc(N2CCOCC2)c(S(=O)(=O)Nc2ccccc2OC)c1	-14.9%
COc1ccc(OC)c(CN2CCN(C(=O)CCC(=O)c3cccs3)CC2)c1	-19.4%
C=CCSc1nnc(COc2ccc(=O)n(-c3ccccc3)n2)n1CC	-2.15%
O=C(NC1CCCCCC1)c1ccc(N2CCCC2=O)cc1	2.01%
c1ccc(OCc2nnc3sc(-c4cccs4)nn23)cc1	5.59%
CCOCCCn1c(N)c(C(=O)Nc2sc3c(c2C(=O)OC)CCCC3)c2nc3ccccc3nc21	4.07%
CCOc1cc(CN2CCCC(CNC(=O)c3ccc(F)cc3)C2)ccc1OC (stereo not shown)	-66.2%
CCCCN(Cc1ccccc1)C(=O)C1CCCN(S(=O)(=O)c2cnc[nH]2)C1 (stereo not shown)	-4.62%
COc1cccc(Oc2ccc(OC)cc2C(=O)O)c1	17.2%
Cn1c(-c2ccccc2)cc2onc(-c3ccccc3)c2c1=O	18.1%
C=CCn1cc(C=C2C(=O)NC(=O)NC2=O)c2ccccc21	9.62%
CCOCCCNC(=O)Cn1cc2c(n1)CCCCC2	0.733%
Cc1cc(C)n(-c2nc3c(c(=O)n(C)c(=O)n3C)n2CCO)n1	8.67%
Cc1c(C)c2c(OCC(=O)NC3CC3)cc3c(c2oc1=O)CCC(C)(C)O3	11.6%
Cc1ccc(C(=O)O)cc1N1CCCC1=O	48.5%
O=C(c1ccc(CSc2ccccc2)cc1)N1CCN(c2ccccc2)CC1	-11.7%
Cc1cc(OCc2nn[nH]n2)c2c(C)c(Cc3ccccc3)c(=O)oc2c1	0.151%
CCC(C)Oc1cc(-c2ccnc(Nc3cccc(Cl)c3)n2)ccn1 (stereo not shown)	-5.36%
CCOc1ccc(NC(=O)NCCN2C(C)CCCC2C)cc1 (stereo not shown)	-26.6%
O=C1CSC(c2cccnc2)N1c1ccccc1 (stereo not shown)	13%
COC(C(=O)Nc1ccnn1C1CCN(C(=O)c2ccc(C=O)cc2)CC1)c1ccccc1 (stereo not shown)	-39.9%
